Data: US20040096845A1, “Peritoneal dialysates” (priority 2000, published 2004)
Structures can show the parent of a compound that is named as a salt.

Legend:
human serum albumin [1] = test: Suppression of methylglyoxal-induced cross linking of human serum albumin, by fluorescent intensity; type: biochemical
Protocol: For estimating the suppression effect on protein cross linking sensitively, glyoxal was used. This chemical is one of glucose degradation products and much greater promoter to accelerate AGE formation than glucose does. […] As a test specimen, mercapto compound, listed in Table 1, was added into the solution at 20 mM/l, then incubated at 37° C. as long as for two weeks. Fluorescent intensity (FI) of the cross linked albumin in the incubated solution was determined at 440 nm (excitation: at 370 nm) by fluorescence meter (Nihon Bunkou Co.). The suppression effect was estimated as follows; dividing the increase in the fluorescent intensity through the incubation in the case of “test specimen added”, by that of “no test specimen added (control 1) ”.
Sodium bisulfite and sodium sulfite were tested as protein cross linking suppressors.
(§1) The increase in fluorescent intensity was determined to estimate relative ratio to those of Control 2.
as §1, §1, §1
Each compound was dissolved at the concentration of 20 mM/l respectively in the mixture of dimethylsulfoxide and phosphate buffer solution at the ratio of 1:3. The increase in fluorescent intensity was determined to estimate relative ratio to those of Control 2.

human serum albumin [2] = molecular target: human serum albumin (Homo sapiens, UniProt P02768); settings: Table 5, Example 11
[3] = methylglyoxal, suppressor dissolved in dimethylsulfoxide : phosphate buffer solution 1:3, relative to Control 2 = 100
[4] = methylglyoxal in place of glyoxal, phosphate buffer solution, conditions as Example 1, relative to Control 2 = 100

In the case of `SC1=NCCS1` [2-Mercaptothiazoline], the “Increase in FI (%)” value (human serum albumin [1]; [3]) is reported as 48%.
`O=C1NC(C(=O)O)CS1` (stereo not shown) [2-Oxo-thiazolidine-4-carboxylic acid] was tested, and the “Increase in FI (%)” value (human serum albumin [1]; [3]) was 8%.
In the case of `CC(=O)Oc1ccccc1C(=O)O` [Acetyl salicylic acid, reference compound], the “Increase in FI (%)” value (human serum albumin [1]; [4]) is reported as 53%.
`N=C(N)NN` [Amino guanidine hydrochloride, reference compound] was tested, and the “Increase in FI (%)” value (human serum albumin [1]; [4]) was 31%.
With `O=C(C[n+]1ccsc1)c1ccccc1.[Br-]` [N-Phenacyl thiazolium bromide, reference compound] the “Splitting of cross linkage in albumin formed by 3-deoxyglucosone (in words)” value (human serum albumin [2]) was “split” and the “Increase in FI (%)” value (human serum albumin [1]; methylglyoxal, suppressor 20 mM/l in methanol : phosphate buffer solution 1:1, relative to Control 2 = 100) was 28%.
With Heparin [reference compound] the “Increase in FI (%)” value (human serum albumin [1]; [4]) was 96%.
